From PMC10917850
Results are given in words; binding and its absence hold for the method and conditions named. In cells and extracts the contact can be indirect. Some entries that bind do so weakly or less than the wild type.

Sequences of proteins named here, by UniProt entry; tags and fusion partners are left off.
UniProt Q9DAJ2: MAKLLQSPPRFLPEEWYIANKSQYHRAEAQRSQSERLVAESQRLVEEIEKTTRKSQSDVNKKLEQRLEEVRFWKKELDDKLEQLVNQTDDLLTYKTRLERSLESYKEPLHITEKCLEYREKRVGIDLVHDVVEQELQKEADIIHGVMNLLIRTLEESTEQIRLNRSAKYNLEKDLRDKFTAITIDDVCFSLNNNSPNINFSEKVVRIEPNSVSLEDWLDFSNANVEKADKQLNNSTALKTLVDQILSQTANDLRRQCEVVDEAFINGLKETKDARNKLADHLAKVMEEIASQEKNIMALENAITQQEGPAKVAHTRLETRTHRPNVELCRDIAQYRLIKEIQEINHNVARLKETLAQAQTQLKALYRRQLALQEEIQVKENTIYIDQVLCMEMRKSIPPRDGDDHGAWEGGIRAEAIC

Columns and labels:
[1] = target: T1, endogenous TEKT3 (mouse (endogenous in mouse testis and sperm)) (UniProt Q6X6Z7); test: co-IP; endogenous proteins in adult mouse testis lysates (Pierce IP Lysis Buffer), WT and Tektip1-/- mice; precipitated with rabbit anti-TEKT1, -TEKT2, -TEKT3 or -TEKT4; rabbit IgG as negative control; Western blot
T1 sequence: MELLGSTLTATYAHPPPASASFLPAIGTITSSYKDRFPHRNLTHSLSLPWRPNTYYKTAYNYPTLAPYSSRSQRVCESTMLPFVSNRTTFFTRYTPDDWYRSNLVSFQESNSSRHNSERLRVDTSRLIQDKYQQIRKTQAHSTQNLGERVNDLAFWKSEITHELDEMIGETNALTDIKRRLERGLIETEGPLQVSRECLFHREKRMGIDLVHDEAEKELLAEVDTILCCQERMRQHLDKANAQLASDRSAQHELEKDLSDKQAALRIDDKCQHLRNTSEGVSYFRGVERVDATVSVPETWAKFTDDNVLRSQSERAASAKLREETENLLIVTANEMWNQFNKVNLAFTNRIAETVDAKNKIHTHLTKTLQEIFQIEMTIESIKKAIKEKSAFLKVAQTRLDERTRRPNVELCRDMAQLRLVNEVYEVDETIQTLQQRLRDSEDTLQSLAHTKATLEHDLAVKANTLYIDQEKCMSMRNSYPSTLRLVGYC

[2] = target: T2, endogenous TEKT4 (mouse (endogenous in mouse testis and sperm)) (UniProt Q149S1); test: as above
T2 sequence: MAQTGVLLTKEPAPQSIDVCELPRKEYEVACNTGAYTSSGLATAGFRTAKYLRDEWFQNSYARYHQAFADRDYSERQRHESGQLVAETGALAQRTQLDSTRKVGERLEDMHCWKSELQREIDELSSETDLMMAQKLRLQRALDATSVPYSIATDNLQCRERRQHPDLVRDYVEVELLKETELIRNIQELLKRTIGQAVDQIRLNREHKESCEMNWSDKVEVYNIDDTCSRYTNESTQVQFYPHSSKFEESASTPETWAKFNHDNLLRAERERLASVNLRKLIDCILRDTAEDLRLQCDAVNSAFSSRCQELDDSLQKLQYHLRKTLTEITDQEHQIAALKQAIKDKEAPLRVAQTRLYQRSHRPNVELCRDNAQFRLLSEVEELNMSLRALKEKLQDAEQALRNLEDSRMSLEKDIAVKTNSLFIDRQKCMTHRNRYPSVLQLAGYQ

binding [1]: binds | binding [2]: binds
Substance: endogenous TEKT1 (from UniProt Q9DAJ2 1-418)
